Data: paper PMC4336329 (PLoS ONE, 2015)
The campaign covered roughly 310,000 compounds. About 14,000 (4.5%) showed an effect of 50% or more. The effect is printed as a negative number. The list shows a part of the results.

What follows are molecules tested against human ether-à-go-go-related gene (hERG) potassium channel (human, UniProt Q12809) (assay: primary screen, population patch clamp on CHO cells stably expressing hERG).
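Further: peak tail current of the secondary pulse compared with the same well before compound.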

Chain of human ether-à-go-go-related gene (hERG) potassium channel (Q12809 whole entry, looked up): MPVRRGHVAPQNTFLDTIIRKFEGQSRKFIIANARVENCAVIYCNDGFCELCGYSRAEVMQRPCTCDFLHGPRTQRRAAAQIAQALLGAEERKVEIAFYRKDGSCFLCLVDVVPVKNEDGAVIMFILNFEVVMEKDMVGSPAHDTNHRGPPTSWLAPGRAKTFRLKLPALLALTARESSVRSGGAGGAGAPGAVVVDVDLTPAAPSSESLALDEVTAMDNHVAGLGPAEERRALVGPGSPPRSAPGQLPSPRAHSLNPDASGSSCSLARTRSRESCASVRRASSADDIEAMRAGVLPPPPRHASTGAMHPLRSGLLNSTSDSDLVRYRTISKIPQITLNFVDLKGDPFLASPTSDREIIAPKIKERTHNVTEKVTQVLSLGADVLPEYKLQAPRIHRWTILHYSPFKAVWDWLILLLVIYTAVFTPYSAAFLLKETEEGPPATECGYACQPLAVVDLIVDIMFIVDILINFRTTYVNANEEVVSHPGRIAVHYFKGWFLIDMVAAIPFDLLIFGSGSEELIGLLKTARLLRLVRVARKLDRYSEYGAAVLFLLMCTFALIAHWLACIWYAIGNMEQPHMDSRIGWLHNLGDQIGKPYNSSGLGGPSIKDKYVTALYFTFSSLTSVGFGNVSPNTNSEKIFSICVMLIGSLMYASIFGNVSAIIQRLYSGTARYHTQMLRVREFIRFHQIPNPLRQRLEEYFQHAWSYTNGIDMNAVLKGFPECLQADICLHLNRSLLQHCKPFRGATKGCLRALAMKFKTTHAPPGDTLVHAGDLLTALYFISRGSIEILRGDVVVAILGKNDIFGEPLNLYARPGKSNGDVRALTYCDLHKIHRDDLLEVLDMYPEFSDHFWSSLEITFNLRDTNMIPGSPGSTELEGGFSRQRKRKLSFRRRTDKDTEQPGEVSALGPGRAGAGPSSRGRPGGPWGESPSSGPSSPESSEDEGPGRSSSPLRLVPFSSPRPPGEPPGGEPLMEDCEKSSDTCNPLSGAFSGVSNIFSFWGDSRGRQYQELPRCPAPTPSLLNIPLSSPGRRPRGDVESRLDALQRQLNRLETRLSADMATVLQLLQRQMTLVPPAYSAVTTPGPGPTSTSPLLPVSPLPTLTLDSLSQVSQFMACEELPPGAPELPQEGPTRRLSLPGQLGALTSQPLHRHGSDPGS

Row | SMILES | hERG current change (%, negative = inhibition) at 10uM [%]
1 | COc1cc(/C=N/Nc2nc(-c3ccc(S(=O)(=O)N(C)C)cc3)cs2)ccc1O | 2.99
2 | CCOC(=O)Cc1csc(NC(=O)CCCc2ccccc2)n1 | 11.5
3 | CCOC(=O)CSc1nc2sc3c(c2c(=O)[nH]1)CC(C)(CC)OC3 (stereo not drawn) | 18.1
4 | Nc1nnc(CSCc2ccccc2)s1 | 1.46
5 | Cc1ccc2nc(C(O)C(O)c3nc4ccc(C)cc4[nH]3)[nH]c2c1 (stereo not drawn) | -6.37
6 | CCN1C(=O)[C@@H]2[C@@H](c3ccc(-c4ccc(C(C)=O)cc4)c(OC)c3)N3CCC[C@@]3(C(=O)OC)[C@@H]2C1=O.O=C(O)C(F)(F)F | -25
7 | CC(C)C[C@H](NC(=O)c1nc[nH]c1C(=O)N[C@@H](CCCCNC(=O)OC(C)(C)C)C(=O)OC(C)(C)C)C(=O)OC(C)(C)C | 3.39
8 | COc1ccc(-n2c(SCc3ccc(C#N)cc3)nnc2-c2ccccn2)cc1 | -58.3
9 | Cc1cccc(C)c1NC(=O)CN1CCc2ccccc2C1 | 8.31
10 | O=C(Nc1ccc(OC(F)(F)F)cc1)c1ccc(-n2cncn2)nc1 | -6.13
11 | Cc1ccc(-n2nnc3c(=O)n(CC(=O)N4CCC(C)CC4)cnc32)cc1 | -37.5
12 | CCCCN(C(=O)c1cccc(N2C(=O)c3ccccc3C2=O)c1)c1c(N)n(CC(C)C)c(=O)[nH]c1=O | -3.19
13 | Cc1cccc(NC(=O)CCC(=O)N/N=C/c2ccco2)c1C | 5.02
14 | Nc1ccc(Oc2ccc3c(c2)OCO3)cc1 | 0.709
15 | O=C(O)CCC(=O)N1CCC[C@H]1C(=O)O | -16.3
16 | COc1ccc(-n2ccnc(SCC(=O)NCc3ccccc3Cl)c2=O)cc1 | -22.7
17 | Cc1cnc(-c2nnc(N(C)C(=O)c3cccnc3)s2)cn1 | 9.2
18 | CC(O)(C#CCN1CCCC1)c1ccccc1 (stereo not drawn) | -2.57
19 | C=CCSc1nccc(-c2nn(-c3ccc(C)cc3)ccc2=O)n1 | -8.82
20 | CCCCn1c(NC(=O)c2ccc(F)cc2)c(C#N)c2nc3ccccc3nc21 | 6.88
21 | O=C(COC(=O)c1ccc(Cl)nc1)Nc1ccc(S(=O)(=O)N2CCCC2)cc1 | -31.5
22 | CCOc1ccccc1N(CC(=O)NCC1CCCO1)C(=O)CCC(=O)Nc1nccs1 (stereo not drawn) | -7.36

Row | SMILES | hERG current change (%, negative = inhibition) at 10uM [%]
23 | C#Cc1cccc(NC(=O)C2CCN(C(C)=O)CC2)c1 | 25.8
24 | CSc1ccccc1NC(=O)CN(C)CC(=O)Nc1ccc(Cl)cc1F | -31.4
25 | CCCCCCNC(=O)CCNC(=O)c1cc(OC)c(OC)c(OC)c1 | -3.86
26 | CC1CCN(Cc2c(C(=O)N/N=C/c3cccc(C(F)(F)F)c3)nnn2-c2nonc2N)CC1 | 13.1
27 | Cc1cc(S(=O)(=O)N2CCOCC2)ccc1OCC(=O)NCCCn1ccnc1 | 10.2
28 | Cc1ccc(-n2c(C)cc(C)c(C#N)c2=O)cc1C | 22.7
29 | Clc1cccc(CSc2ncn(-c3ccccc3)n2)c1 | -8.62
30 | CC1=CC(C)C2(CO)COC(c3ccc(O)cc3)C1C2C (stereo not drawn) | 24.9
31 | Cc1cc(C)cc(NC(=O)CN(C)S(=O)(=O)c2cccc3nsnc23)c1 | -25.9
32 | COc1ccc(-c2nn(CCC#N)cc2/C=N/O)cc1OC | -4.29
33 | CC[C@@H]1CC=C[C@H]2[C@H]1C(=O)N(Cc1ccccc1)[C@H]2c1ccc(C(F)(F)F)cc1 | 6.12
34 | NC(=O)Nn1c(CCC(=O)O)ccc1-c1ccc(Cl)cc1 | -2.79
35 | Cn1c(Cn2c(=O)sc3ccccc32)nnc1SCC(=O)NCc1ccc2c(c1)OCO2 | -9.47
36 | CCOc1ccc(NC(=O)Cn2cc(C(=O)CC)c3ccccc32)cc1 | 14.7
37 | CCN(c1nc(C)cc(OC)n1)S(=O)(=O)c1ccccc1 | -20
38 | N#C/C(=C\c1cn(CC(=O)N2CCCC2)c2ccccc12)C(=O)NCc1ccc2c(c1)OCO2 | -6.91
39 | Nc1ccc(CN2CCOCC2)cc1 | 22.3
40 | CC(C)C[C@H]1COCCS(=O)(=O)N1Cc1ccccc1F | -18.4
41 | C=C(C)C1CC=C(C)/C(=N/NC(=O)COc2ccc(C)cc2)C1 (stereo not drawn) | 14.6
42 | CCOc1ccc2nc(N3CCC(C(=O)N4CCN(C(=O)c5ccco5)CC4)CC3)sc2c1 | -81.7
43 | O=C(NCc1cccnc1)C(C(=O)c1ccc(F)cc1)n1ccccc1=O (stereo not drawn) | -6.73
44 | Cc1ccc(S(=O)(=O)N2CCC(=O)N(CCOCc3cccc(Cl)c3)CC2)cc1 | -36.7

Row | SMILES | hERG current change (%, negative = inhibition) at 10uM [%]
45 | Cn1c(=O)oc2cc(S(=O)(=O)NCc3ccc(Cl)cc3)ccc21 | -13
46 | Cc1cc(C(=O)COC(=O)c2ccc[nH]c2=O)c(C)n1CCc1ccc(F)cc1 | -16.6
47 | CC1CCN(C(=O)CSc2nnc(-c3ccccc3F)o2)CC1 | -8.38
48 | CC(C)(C)NC(=O)c1ccc2c3c(cccc13)CC2 | -51.4
49 | CNC(=S)N/N=C(\C)c1ccc(-n2ccnc2)cc1 | -21.5
50 | COCCN(C(=O)c1c(C)noc1C)c1c(N)n(CC(C)C)c(=O)[nH]c1=O | 12.2
51 | Cc1ccccc1CSc1nnc(-c2ccccn2)n1N | 1.45
52 | CCC(=O)c1ccc(OCC(=O)Nc2cccc(S(=O)(=O)N(C)c3ccccc3)c2)cc1 | -19.6
53 | Cc1ccc(C2(c3ccc(C)cc3)NC(=O)N(CC(N)=O)C2=O)cc1 | -12.4
54 | COc1ccc(NC(=O)C2CCN(S(=O)(=O)c3ccc4c(c3)CC(C)N4C(C)=O)CC2)c(OC)c1 (stereo not drawn) | -13.7
55 | Cc1cc(Nc2ccc(Cl)cc2)nc(N)n1 | -30.8
56 | Cc1ccc2cc(CN(CCN(C)C)C(=O)Nc3ccc(Cl)cc3)c(=O)[nH]c2c1 | -70.5
57 | CC(C)COc1ccc(C(=O)Nc2ccc([N+](=O)[O-])cc2)cc1 | 26.9
58 | FC(F)(F)c1ccc(Sc2nnc(-c3cccs3)n2CC2CCCO2)nc1 (stereo not drawn) | -17.1
59 | COC(=O)[C@H](C)NC(=O)NC1CCN(Cc2ccccc2)CC1 | -1.96
60 | COc1ccc(CNc2cc(C)nc3ncnn23)c(OC)c1 | -8.93
61 | Cc1c(NC(=O)/C=C/C(=O)O)cccc1[N+](=O)[O-] | 9.88
62 | CC1/C(=N/O)CC(c2ccccc2)NC1c1ccccc1 (stereo not drawn) | 2.45
63 | COC(C/C=C\C(=O)[C@@H](C)OCc1ccccc1)OC | 3.6
64 | O=C(COc1coc(CN2CCN(c3ccccc3F)CC2)cc1=O)Nc1ccccc1 | 30.9
65 | COc1ccc(CNCc2cn(-c3cccc(F)c3)nc2-c2ccc(C)o2)cc1 | -55.5
66 | C/C(=N/NC(=O)c1cc2ccccc2cc1O)c1ccco1 | 1.77

Row | SMILES | hERG current change (%, negative = inhibition) at 10uM [%]
67 | CCCOP(=O)(c1ccccc1)c1ccccc1 | 10.1
68 | CN1C(=O)N(C)C(=O)C2(Cc3cc(NC(=O)c4ccc(F)cc4)ccc3N3CCCC32)C1=O (stereo not drawn) | -8.77
69 | Cn1cc(CCC(=O)NCc2ccc(Cl)cc2)c2ccccc21 | 9.36
70 | COC(=O)c1ccc(CNC(=O)Cn2nnnc2CN(C)C(C)C)cc1 | 15.3
71 | O=C(COc1coc(CN2CCc3ccccc32)cc1=O)N1CCCCC1 | -4.83
72 | O=C(Cc1ccccc1)N/N=C/c1ccc2c(c1)OCO2 | 6.11
73 | CCn1c(=Nc2ccc(N3CCOCC3)cc2)ccc2ccccc21 | -66.8
74 | Fc1ccc(CSc2nnc(Cc3sc(-c4ccccc4)nc3-c3ccccc3)o2)cc1 | 19.2
75 | COCC(=O)N(Cc1cc2ccc(C)cc2[nH]c1=O)c1ccc(C)cc1C | 4.32
76 | Cc1nc(N2CCN(C)CC2)c2c(C)c(C(=O)Nc3ccc(C)c(F)c3)sc2n1 | -40.8
77 | COc1ccc(-c2cc(C(F)(F)F)c(C#N)c(SCC(=O)Nc3ccc(C)cc3)n2)cc1 | -0.803
78 | O=C(NCc1cccc(CNC(=O)C(=O)NCc2ccco2)c1)C(=O)NCc1ccco1 | -25.7
79 | O=C(CSc1nnc(Cc2cc(=O)[nH]c(=O)[nH]2)n1-c1ccc(F)cc1)NC1CCCC1 | 5.2
80 | CCOC(=O)N1CCN(CC(O)COc2ccc3c(c2)CCC3)CC1.Cl (stereo not drawn) | -18.1
81 | CCN(CC)C(=O)c1c(NC(=O)c2ccccc2)sc(C)c1C | -6.01
82 | Cc1nc(SCC(=O)N2CCN(C(=O)c3ccco3)CC2)c2c(C)c(C)sc2n1 | -66.8
83 | S=c1[nH]nc(COc2ccccc2)n1/N=C/c1ccccc1Cl | 24.6
84 | CC(=O)c1ccc(OC(=O)N(C)c2ccccc2)cc1 | 11
85 | CNC(=O)Nc1cccc(C(F)(F)F)c1 | -3.03
86 | Cc1ccc(-n2ncc(C(=O)NC3CC3)c2C2CCN(C(=O)OC(C)(C)C)CC2)c(C)c1 | 1.48
87 | Cc1nc2ccccc2nc1OCc1ccccc1 | -16.2
